Experimental data taken from patent US20230192860A1 (Bristol-Myers Squibb, published 2023).

Legend:
[1] = molecular target: T1, monovalent hVISTA-ECD (amino acids 32-193 of SEQ ID NO: 1 with a 7xHis tail) (human, UniProt Q9H7M9 33-193); assay: SPR 37C, pH 7.4 over pH 6.0
T1 construct: analyte of the SPR assays; also called huVISTA-His; human VISTA-ECD
Experimental: (§1) For this assay, ‘029, ‘761 and ‘767were reformatted as hIgG1f isotype and were expressed as both standard hIgG1f and in hIgG1f afucosylated formats to compare against the hIgG1.3f Fc. An SPR kinetics assay was conducted to measure koff and KD binding affinity measurements for VISTA Abs at acidic and physiological pH using a Biacore® T100 instrument (GE Healthcare). […] Antibodies were diluted to 25 nM in PBST pH 7.4, and were captured across active biosensor flow cells at 5 ul/min for 45 seconds. A concentration series of 1600 - 0.78 nM (pH 7.4) and 100 - 0.78 nM (pH 6.0) monovalent hVISTA-ECD (SEQ ID NO: 325) was prepared running buffer, and was injected over the captured antibodies at 40 ul/min to measure association and dissociation. Two 15 second injections of 10 mM glycine pH 1.5 were used to regenerate the Protein A capture surface between assay cycles. Rate constants ka (kₒₙ) and kd (koff) were derived from reference flow cell and 0 nM blank-subtracted sensorgrams, and were fit to a 1:1 binding model in Biacore® T200 Evaluation Software v.2.0. The affinity constant, KD was calculated as the ratio of rate constants koff/kₒₙ for each VISTA antibody. Ratios of koff and KD at pH 7.4 / pH 6.0 were calculated to compare off-rate and affinity improvement at acidic pH relative to physiological pH.

[2] = molecular target: T1, monovalent hVISTA-ECD (amino acids …); assay: SPR 37C, Ab on Protein A, hVISTA-ECD 100-0.78 nM, pH 6.0
Experimental: as §1

[3] = molecular target: T1, monovalent hVISTA-ECD (amino acids …); assay: SPR 37C, Ab on Protein A, hVISTA-ECD 1600-0.78 nM, pH 7.4
Experimental: as §1

T1 sequence (Q9H7M9 other isoform, or with tags, fused parts or gaps limits assumed): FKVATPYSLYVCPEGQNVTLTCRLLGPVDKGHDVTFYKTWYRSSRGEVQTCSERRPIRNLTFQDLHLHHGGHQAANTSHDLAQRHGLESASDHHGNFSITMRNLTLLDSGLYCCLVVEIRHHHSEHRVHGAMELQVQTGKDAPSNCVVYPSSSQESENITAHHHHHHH

KD ratio (7.4/6) [1]	kd ratio (7.4/6) [1]	Kd [2] [nM]	koff [2] [s⁻¹]	kon [2] [M⁻¹ s⁻¹]	Kd [3] [nM]	koff [3] [s⁻¹]	kon [3] [M⁻¹ s⁻¹]	Binder
8330	28	4.2	0.0015	360000	35000	0.042	1200	P1-069293 (P1-068761.IgG1f) (antibody, IgG1f; also called P1-068761 hIgG1f) heavy: EVQLVESGGGLVQPGKSLRLSCAASGFTLEDEAMHWVRQAPGKGLEWVSGINWNSEEIGYADSVKGRFTISRDNAKNSLYLQMNSLRTEDTALYYCAKVPGYSHGWIDAEDVWGQGTMVTVSSASTKGPSVFPLAPSSKSTSGGTAALGCLVKDYFPEPVTVSWNSGALTSGVHTFPAVLQSSGLYSLSSVVTVPSSSLGTQTYICNVNHKPSNTKVDKRV[human IgG1 Fc not written out] light: [about 100 residues not written out][about 120 residues not written out]
2000	28	4.1	0.0015	370000	8200	0.042	5100	P1-069312 (P1-068761.IgG1f afucosylated) (antibody, afucosylated, IgG1f, afucosylated; also called P1-068761 hIgG1f afucosylated) heavy: EVQLVESGGGLVQPGKSLRLSCAASGFTLEDEAMHWVRQAPGKGLEWVSGINWNSEEIGYADSVKGRFTISRDNAKNSLYLQMNSLRTEDTALYYCAKVPGYSHGWIDAEDVWGQGTMVTVSSASTKGPSVFPLAPSSKSTSGGTAALGCLVKDYFPEPVTVSWNSGALTSGVHTFPAVLQSSGLYSLSSVVTVPSSSLGTQTYICNVNHKPSNTKVDKRV[human IgG1 Fc not written out] light: [about 100 residues not written out][about 120 residues not written out]
5.9	0.9	6.9	0.0078	1.1e+06	41	0.0072	170000	P1-069307 (P1-061029.IgG1f afucosylated) (antibody, afucosylated, IgG1f, afucosylated; also called P1-061029 hIgG1f afucosylated) heavy: EVQLVESGGGLVQPGKSLRLSCAASGFTLDDYAMHWVRQAPGKGLEWVSGINWNSANIGYADSVKGRFTISRDNAKNSLYLQMNSLRTEDTALYYCAKVPGYSGGWIDAFDVWGQGTMVTVSSASTKGPSVFPLAPSSKSTSGGTAALGCLVKDYFPEPVTVSWNSGALTSGVHTFPAVLQSSGLYSLSSVVTVPSSSLGTQTYICNVNHKPSNTKVDKRV[human IgG1 Fc not written out] light: [about 100 residues not written out][about 120 residues not written out]
5.9	0.9	7.1	0.008	1.1e+06	42	0.0074	170000	P1-069302 (P1-061029.IgG1f) (antibody, IgG1f; also called P1-061029 hIgG1f) heavy: EVQLVESGGGLVQPGKSLRLSCAASGFTLDDYAMHWVRQAPGKGLEWVSGINWNSANIGYADSVKGRFTISRDNAKNSLYLQMNSLRTEDTALYYCAKVPGYSGGWIDAFDVWGQGTMVTVSSASTKGPSVFPLAPSSKSTSGGTAALGCLVKDYFPEPVTVSWNSGALTSGVHTFPAVLQSSGLYSLSSVVTVPSSSLGTQTYICNVNHKPSNTKVDKRV[human IgG1 Fc not written out] light: [about 100 residues not written out][about 120 residues not written out]
